Assay results from PMC4336329 (PLoS ONE, 2015).
Out of some 310,000 compounds screened, about 2,200 (0.71%) showed an effect of 50% or more. Effects have a minus sign here. The list shows a part of the results.

Target: human ether-à-go-go-related gene (hERG) potassium channel (human, UniProt Q12809)
Experiment: primary screen, population patch clamp on CHO cells stably expressing hERG

Sequence of human ether-à-go-go-related gene (hERG) potassium channel (Q12809 whole entry, looked up): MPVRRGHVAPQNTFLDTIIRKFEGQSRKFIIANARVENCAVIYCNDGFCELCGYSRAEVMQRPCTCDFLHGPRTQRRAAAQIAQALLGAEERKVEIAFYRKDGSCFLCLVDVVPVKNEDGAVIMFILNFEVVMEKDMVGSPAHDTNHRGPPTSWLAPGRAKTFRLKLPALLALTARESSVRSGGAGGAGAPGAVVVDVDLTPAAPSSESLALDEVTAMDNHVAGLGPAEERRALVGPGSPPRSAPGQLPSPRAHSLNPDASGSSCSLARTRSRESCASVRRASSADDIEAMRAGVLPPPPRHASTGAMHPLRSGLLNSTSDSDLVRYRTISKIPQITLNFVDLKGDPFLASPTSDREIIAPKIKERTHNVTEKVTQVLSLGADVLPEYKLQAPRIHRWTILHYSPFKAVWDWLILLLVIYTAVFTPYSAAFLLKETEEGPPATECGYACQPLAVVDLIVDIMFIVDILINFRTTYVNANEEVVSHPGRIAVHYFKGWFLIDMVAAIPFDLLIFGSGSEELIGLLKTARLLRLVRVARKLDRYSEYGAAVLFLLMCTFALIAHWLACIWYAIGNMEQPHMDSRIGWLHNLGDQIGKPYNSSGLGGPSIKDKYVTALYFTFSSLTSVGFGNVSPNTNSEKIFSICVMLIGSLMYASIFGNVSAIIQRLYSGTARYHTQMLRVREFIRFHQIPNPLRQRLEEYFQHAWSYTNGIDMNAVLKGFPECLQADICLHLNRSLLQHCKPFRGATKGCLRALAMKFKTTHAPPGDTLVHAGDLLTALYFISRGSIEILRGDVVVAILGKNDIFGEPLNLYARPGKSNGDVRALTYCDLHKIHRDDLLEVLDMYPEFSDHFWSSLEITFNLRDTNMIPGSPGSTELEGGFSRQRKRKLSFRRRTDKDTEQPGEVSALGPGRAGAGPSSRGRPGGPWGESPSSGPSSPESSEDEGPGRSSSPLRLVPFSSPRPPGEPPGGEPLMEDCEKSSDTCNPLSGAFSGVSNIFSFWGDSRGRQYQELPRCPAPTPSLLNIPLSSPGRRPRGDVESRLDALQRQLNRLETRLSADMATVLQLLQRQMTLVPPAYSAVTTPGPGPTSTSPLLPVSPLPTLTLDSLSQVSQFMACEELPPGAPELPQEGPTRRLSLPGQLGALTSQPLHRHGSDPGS

| Structure (SMILES) | hERG current change (%, negative = inhibition) at 1uM [%] |
| --- | --- |
| Cc1cc2ccccn2c1C(=O)c1ccc(F)cc1 | 6.54 |
| Cn1c(=O)cc(OCCCC(=O)N2CCN(Cc3ccc4c(c3)OCO4)CC2)c2ccccc21 | -3.57 |
| CCN(CC)S(=O)(=O)c1ccc(NC(=O)CSc2ncnc3ccccc23)cc1 | 6.88 |
| O=C(NCCCN1CCOCC1)/C(=C/c1cccnc1)NC(=O)c1ccccc1 | -6 |
| CC(C)N=C1NN=C(c2ccc(F)cc2)CS1 | -0.433 |
| FC(F)(F)c1ccc(Nc2nnnc3ccccc23)cc1 | 10.7 |
| COc1cccc(-n2cc(CNC(=O)C3CCC(=O)N(C4CC4)C3)cn2)c1 (stereo not drawn) | 7.96 |
| O=[N+]([O-])c1ccccc1/C=N/n1c(COc2ccccc2)n[nH]c1=S | 0.17 |
| O=C(/C=C/c1ccc(Cl)cc1Cl)NC(=S)Nc1ccc(CN2CCOCC2)cc1 | -3.79 |
| CC(Sc1nnc(COc2ccccc2)n1-c1ccccc1)C(=O)O (stereo not drawn) | 10.6 |
| COCCNc1nc(N)c([N+](=O)[O-])c(N2CCCCCC2)n1 | 11.6 |
| COC(=O)c1ccc(/C=N/NC(=O)c2ccc3nc[nH]c3c2)cc1 | 24.6 |
| CC(C)C(c1nnnn1Cc1ccco1)N1CCN(c2nc3ccccc3s2)CC1 (stereo not drawn) | 1.27 |
| CC1=NCCN1CCNC(=O)Nc1ccc(C(C)(C)C)cc1 | 9.73 |
| CCCCCCOC(=O)c1ccc(OC(=O)c2cccnc2)cc1 | 11.2 |
| Cc1c(/C=N/NC(=O)C(NC(=O)c2ccc3c(c2)OCO3)C(C)C)c2ccccc2n1C (stereo not drawn) | 6.15 |
| C#CCOCCOCCOCCNc1nc(N2CCN(C(=O)C(Cc3cc4ccccc4[nH]3)n3cc(C(N)Cc4ccc(O)cc4)nn3)CC2)nc(N2CCN(C(=O)C(CCC(=O)O)n3cc(C(N)C(C)CC)nn3)CC2)n1.Cl (stereo not drawn) | 17 |
| O=C(O)CC(c1ccccc1)c1ccccc1 | -10.7 |
| O=C(O)CCSc1nnc(COc2cccc3ccccc23)n1-c1cccc(Cl)c1 | 16.3 |
| Cc1ccc(NC(=S)NCc2ccc3[nH]c4c(c3c2)CCCC4)cc1 | 3.05 |
| Cc1cc(Br)cc(Cl)c1OCC(=O)NC(=O)NCc1ccccc1 | 4.61 |
| O=C(NCC(c1ccco1)N1CCc2ccccc2C1)c1ccc(Br)cc1 (stereo not drawn) | 5.24 |

| Structure (SMILES) | hERG current change (%, negative = inhibition) at 1uM [%] |
| --- | --- |
| Cc1cc(CNC(=O)C2CCC(=O)N(Cc3ccccc3F)C2)on1 (stereo not drawn) | 13.1 |
| CCC(=O)Nc1c(C(=O)N2CCCCCC2)cnn1-c1ccc(C)c(C)c1 | -2.23 |
| O=[N+]([O-])c1cccc(-c2ccc(/C=N/NC(=S)Nc3ccccc3)o2)c1 | 13.3 |
| Cc1cc(NC(=O)COc2c(C)cccc2C)no1 | 1.95 |
| COc1ccc([N+](=O)[O-])cc1/C=N/Nc1nn[nH]n1 | 14.8 |
| CCOC(=O)C1CCCN(c2ccc(NC(=O)c3snc4c(=O)[nH]c(C)nc34)cc2)C1 (stereo not drawn) | 12.4 |
| COc1ccc(S(=O)(=O)NCC(c2cccnc2)N2CCN(Cc3ccccc3)CC2)cc1 (stereo not drawn) | -26.7 |
| Cc1ccccc1NC(=O)N(CCc1nc2ccccc2[nH]1)Cc1ccccc1 | 7.58 |
| O=C(CCCCCNC(=O)c1ccccc1)N/N=C/c1ccc(F)cc1 | 7.93 |
| COc1ccc(OC)c(C2=NOC(C(=O)N3CCN(c4ccccc4)CC3)C2)c1 (stereo not drawn) | 7.47 |
| Cn1c(SCC(=O)N(Cc2ccccc2)C(C)(C)C)nc2ccccc21 | 4.37 |
| CC(NC(=O)c1ccncc1)C(c1cccs1)N1CCOCC1 (stereo not drawn) | 6.92 |
| CCc1nnc(NS(=O)(=O)c2ccc(NC(=S)NC(=O)/C=C/c3ccc(F)cc3)cc2)s1 | 23 |
| COc1ccc(/C=C/C(=O)Nc2ccc3nc4n(c(=O)c3c2)CCCC4)cc1 | 25.9 |
| COCC(C)OC(=O)c1c(N)n(CCCN2CCOCC2)c2nc3ccccc3nc12 (stereo not drawn) | 12.1 |
| C=CCc1cccc2cc(C(=O)NCCOC)c(=O)oc12 | 10.9 |
| CCOC(=O)C(=O)NC1CCSC1=O (stereo not drawn) | 11.5 |
| O=C(O)COCc1nc2ccccc2[nH]1 | -2.87 |
| C(=C\n1nnc2ccccc21)/c1ccc[nH]1 | 8.3 |
| C/C(=N\NC(=O)c1ccc2c(c1)OCO2)c1ccc2c(c1)OCO2 | 9.27 |
| Cc1cccc2cc(CN(CCN(C)C)C(=S)Nc3ccccc3)c(=O)[nH]c12 | 4.24 |
| O=C(CN1C(=O)NC(c2ccccc2)(c2ccccc2)C1=O)Nc1cccnc1Cl | -4.88 |

| Structure (SMILES) | hERG current change (%, negative = inhibition) at 1uM [%] |
| --- | --- |
| O=C(c1ccco1)N1CCN(S(=O)(=O)c2ccc(S(=O)(=O)NC3CCCCC3)cc2)CC1 | -4.39 |
| CC(=NCCCN(C)C)C1=C(O)c2ccccc2C1=O | 1.37 |
| Cc1ccccc1OCC(O)CN1CCN(c2ccccn2)CC1.Cl (stereo not drawn) | -14.6 |
| Clc1ccc(Sc2cc(Cl)c(-c3ccccc3)nn2)cc1 | 8.23 |
| CCOC(=O)c1nnc(-c2ccccc2)nc1Sc1ccccc1Cl | 12.3 |
| CC(=O)N1CCc2cc(NS(=O)(=O)c3cccs3)ccc21 | 6.68 |
| O=C(COC(=O)c1ccc(F)cc1F)NCCC1=CCCCC1 | 11.6 |
| CNC(=O)c1cn(-c2ccccc2)c(=O)c2ccccc12 | 9.83 |
| O=C(C1CCN(S(=O)(=O)c2ccc(F)cc2)CC1)N1CCCC(C(F)(F)F)C1 (stereo not drawn) | 3.93 |
| COc1ccc(NC(=O)C2CC(=O)N(c3cccc(C)c3C)C2)cc1 (stereo not drawn) | 8 |
| COc1ccc(-c2cc3nc(C)cc(N)n3n2)cc1 | 6.77 |
| S=C(NCc1ccccc1Cl)NC1CCCC1 | 10.7 |
| CO/N=C(/COc1ccc(F)cc1)c1ccc(OC)cc1 | 25.4 |
| Nc1ncnc2nc(SCc3ccccc3)[nH]c12 | 0.244 |
| COc1ccc(CCNC(=O)c2ccc(NS(=O)(=O)c3c(C)noc3C)cc2)cc1OC | 6.66 |
| O=C(Cc1c(F)cccc1Cl)NNC(=S)Nc1ccc(S(=O)(=O)Nc2ncccn2)cc1 | 15.2 |
| CCc1ccc(NC(=O)COc2cccc(-n3cnnn3)c2)cc1 | 4.31 |
| CCN(CC)Cc1ccccc1CNC(=O)c1cccc(S(=O)(=O)Nc2ccc3c(c2)OCO3)c1 | -20.2 |
| COC(=O)C1CCN(C(=O)c2ccc3nc(-c4cccc(OC)c4)oc3c2)CC1 | 2.5 |
| O=C(CN1C(=O)C2CC=CCC2C1=O)Nc1ccc(S(=O)(=O)Nc2nccs2)cc1 (stereo not drawn) | 6.39 |
| CCN1CCN(CC(O)COc2cccc(OC)c2)CC1.Cl (stereo not drawn) | 12.2 |
| Cc1ccc(-n2c(=O)[nH]cc(C(=O)Nc3ccc4c(c3)OCCO4)c2=O)cc1 | 16.2 |

| Structure (SMILES) | hERG current change (%, negative = inhibition) at 1uM [%] |
| --- | --- |
| CC(C)(C)n1nnnc1C(c1cccnc1)N1CCOCC1 (stereo not drawn) | 1.14 |
| Cc1ccc(C(=O)N(C)Cc2ccccc2)cc1S(=O)(=O)N1CCOCC1 | 9.21 |
| S=C(c1c[nH]c2ccccc12)N1CCOCC1 | 3.08 |
| Cc1ccc2cc(CN(CCCN(C)C)C(=S)NCc3ccccc3)c(=O)[nH]c2c1C | -1.99 |
| CCCN1CN=C(Nc2nc3ccccc3o2)NC1 | 9.35 |
| N=c1oc2cc(O)ccc2cc1C(=O)Nc1ccc(F)cc1 | 10.2 |
| COc1cccc(C(c2nnnn2Cc2ccccc2)N2CCN(C3CCCC3)CC2)c1OC.Cl (stereo not drawn) | -3.92 |
| CCc1cc(C(=O)NNC(=S)Nc2cccc(C)c2)cs1 | 2.37 |
| O=C(/C=C/c1ccco1)NC(=S)Nc1ccc(O)c(-c2nc3ccccc3s2)c1 | 12.6 |
| CCN(Cc1ccccc1)C(=O)COC(=O)c1cnc(C)cn1 | 16.9 |
| CCCOP(=O)(c1ccc(N(C)C)cc1)C(Nc1ccccc1)c1ccc(C)cc1 (stereo not drawn) | -4.42 |
| CCOc1ccccc1NC(=O)CSC1=NN2CCCC(=O)N=C2S1 | 5.32 |
| CC(C)C(NS(=O)(=O)c1cccs1)C(=O)NCc1ccc2c(c1)OCO2 (stereo not drawn) | -2.5 |
| FC(F)Oc1ccc(NC(=S)N2CCN(Cc3ccccc3)CC2)cc1 | 2.94 |
| COc1cccc(CN2C(=O)N(C(C)C)C(N(O)C(=O)NC(C)C)C2(C)C)c1OC (stereo not drawn) | 8.36 |
| COc1cc(/C=C2\C(C)=C(C#N)c3nc(N)c(C#N)c(C)c32)ccc1OCC(=O)O | 4.98 |
| Cc1ccc(CNC(=O)CN(c2ccc(C(C)C)cc2)S(=O)(=O)c2c(C)noc2C)cc1 | 13.3 |
| C#CCN1N=C(c2ccc(C)cc2)CSC1=O | 14.5 |
| O=C(Nc1ccccc1N1CCCCC1)c1ccc2nccnc2c1 | 8.74 |
| O=C([O-])c1cc([N+](=O)[O-])ccc1Nc1ccccc1.[Na+] | 4.39 |
| CCC(=O)c1ccc(OCC(=O)OCC(=O)N2c3ccccc3CC2C)cc1 (stereo not drawn) | -1.42 |
